# In the supplement of paper PMC3724861:
# This is one part of the list.
# Test system: T1, Caupolican (Caup) homeodomain DNA-binding domain
# T1 sequence: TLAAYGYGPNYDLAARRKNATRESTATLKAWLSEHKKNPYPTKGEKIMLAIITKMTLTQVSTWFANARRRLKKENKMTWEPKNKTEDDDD
# Experiment: PBM E-score (8-mer, recovered from the published 9-mer minima) (E-score (dimensionless, -0.5 to 0.5)); Drosophila protein; higher = stronger relative binding preference, active = 0.31 or more
# Summary of the method: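 An enrichment score, with higher meaning stronger, expresses relative binding preference for each short DNA word. The protein used was Caup's homeodomain DNA-binding domain (residues 214-303), produced by in vitro transcription and translation and tested at 100 nM on custom-designed protein binding microarrays. The 8-mer values were recovered from published 9-mer scores, each equal to the lower of its two constituent 8-mer scores.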
row,Sequence,PBM E-score
1,CACGTACA,inactive: 0.261
2,AGTCCGCC,inactive: -0.146
3,AGCGAGGC,inactive: -0.21
4,CGGGGTGA,inactive: -0.0916
5,AATCTATA,inactive: 0.116
6,ATAGGATG,inactive: 0.0744
7,AAGCGTAC,inactive: 0.0443
8,CGTAAATC,inactive: -0.00723
9,AGCCTACG,inactive: -0.0134
10,CATTGGAC,inactive: 0.0602
11,ACTGTGCA,inactive: 0.0436
12,CCTTTTTA,inactive: -0.0158
13,CGAGGTTA,inactive: 0.0257
14,TGAGGCCA,inactive: -0.118
15,CAGTGCTC,inactive: -0.0711
16,ATTAAGCA,inactive: 0.0138
17,CGCCCTGC,inactive: -0.202
18,GAGGGAGA,inactive: -0.155
19,AAAACCTC,inactive: -0.00612
20,TAACATGA,active: 0.424
21,AAGCTTAC,inactive: -0.0272
22,TCGGTGAA,inactive: -0.0311
23,CCAAATGG,inactive: -0.069
24,AAGGCGTA,inactive: -0.0451

row,Sequence,PBM E-score
1,CGGTTCGC,inactive: -0.139
2,AATTTAGT,inactive: 0.132
3,AGATGGAA,inactive: 0.0415
4,TGCGGCCA,inactive: -0.177
5,GTGGTTGA,inactive: 0.0698
6,GAGGATCA,inactive: -0.0175
7,CGAGCAGC,inactive: 0.00279
8,ACGTAGGG,inactive: -0.147
9,GCTTCGAC,inactive: -0.0958
10,AGTCAGGG,inactive: -0.0698
11,ACTATGTC,inactive: 0.302
12,AGCCTTGC,inactive: -0.22
13,ATAGGCTG,inactive: -0.00365
14,AGCCGGAT,inactive: -0.163
15,CGTACTAC,inactive: 0.129
16,CACAACAA,inactive: 0.29
17,AATCTGGT,inactive: 0.0722
18,AAACTTTA,inactive: 0.0827
19,CAAGTGGA,inactive: 0.0464
20,CCTGAGGA,inactive: -0.0674
21,TGAACCCA,inactive: -0.127
22,CAGTCGCC,inactive: -0.243
23,AGTTTTTA,inactive: 0.0431
24,AGATTCAT,≥ 0.106

row,Sequence,PBM E-score
1,AGGAAGCA,inactive: -0.0746
2,CGTAGAAA,inactive: 0.025
3,GAAACTTA,inactive: 0.0762
4,CTTACACC,inactive: 0.0684
5,AGCCCTAT,inactive: -0.111
6,AAAAACAT,inactive: 0.296
7,CTTGGACA,inactive: 0.16
8,ACCCCTAC,inactive: -0.0349
9,AATAGGTG,inactive: 0.0711
10,ACACCCGC,inactive: -0.0419
11,AAGTATTA,inactive: 0.157
12,GACCAAAC,inactive: -0.00733
13,GCTCAGCA,inactive: 0.0118
14,TAGTCCGA,inactive: -0.0351
15,ACGCGCCG,inactive: -0.154
16,AATCCATG,inactive: 0.0904
17,CCGCGAAC,inactive: -0.151
18,AACAGTTA,inactive: 0.0683
19,AGAGGAGC,inactive: -0.148
20,CACCCGTA,inactive: -0.0759
21,ACTTCATG,inactive: 0.0721
22,ATCGTCCG,inactive: 0.00258
23,AAATTCAT,inactive: 0.135
24,CCTCATGC,inactive: -0.129

row,Sequence,PBM E-score
1,CACCCTGG,inactive: -0.116
2,ACAGCCAC,inactive: -0.0462
3,CCGTAACC,inactive: -0.0824
4,ATTGCAGA,≥ 0.0838
5,CTCCCATA,inactive: -0.0431
6,ATCTCTTG,inactive: 0.0726
7,GAGGGAAA,inactive: -0.12
8,GCTACGCC,inactive: -0.204
9,AGGGCACT,inactive: -0.136
10,CCCAGACG,inactive: -0.265
11,GAGAACCA,inactive: 0.0238
12,ATACTCTC,inactive: 0.0807
13,CCCCCACC,inactive: -0.356
14,CACGGGAA,inactive: -0.0415
15,ACCATGGT,inactive: 0.127
16,CGGTCGTC,inactive: -0.173
17,CCCCTTTA,inactive: -0.138
18,ACTCTGAG,inactive: -0.0354
19,CGGGAAAC,inactive: -0.0623
20,ATACCCCC,inactive: -0.213
21,GGCGGAAA,inactive: -0.149
22,CCTAGGTA,inactive: -0.00584
23,AGGCTCAG,inactive: -0.0492
24,CACAGACG,inactive: 0.0361

row,Sequence,PBM E-score
1,GTCCTGTA,inactive: 0.164
2,GACATAAA,inactive: 0.288
3,GTATCCTA,inactive: 0.109
4,AGGACATA,≥ 0.284
5,GGAACTCC,inactive: -0.145
6,ACTGGACT,inactive: 0.0442
7,CACCTCGG,inactive: -0.148
8,TACATGAA,active: 0.383
9,ATATGCCG,inactive: -0.0171
10,AGTAGCTC,inactive: -0.0271
11,GACAGTCA,inactive: -0.0261
12,TAGTTTCA,inactive: 0.125
13,GTAAATAA,inactive: 0.143
14,GTGGCATA,inactive: -0.0214
15,AGTCGAAA,inactive: 0.0145
16,GGGTCTGA,inactive: -0.193
17,CCTACATA,inactive: 0.153
18,AGGTTCTG,inactive: 0.0327
19,TACTTGCA,inactive: 0.161
20,ACGGTACG,inactive: -0.013
21,ACTTCTAA,inactive: 0.0438
22,GCCCGTCC,inactive: -0.243
23,ACTGAGAG,inactive: -0.06
24,AGCGATTG,inactive: -0.063

row,Sequence,PBM E-score
1,GAGAAGAA,inactive: 0.0108
2,CTCTCCGA,inactive: -0.187
3,ACACTGCT,inactive: 0.103
4,GTACCCGA,inactive: 0.0664
5,AGAAATAG,inactive: 0.106
6,CTAAATCA,inactive: 0.0485
7,CATTTTGG,inactive: 0.026
8,GATACACA,inactive: 0.241
9,GTATTCAA,inactive: 0.0626
10,AACAGAAT,inactive: 0.12
11,ACGGAGCG,inactive: -0.0924
12,ATGCAGTA,≥ 0.133
13,ACTTTAAT,inactive: 0.0769
14,AACTTCCG,inactive: -0.0209
15,ATCCGCTG,inactive: 0.0352
16,ACCGTCCC,inactive: -0.167
17,CTTCTAGA,inactive: -0.0994
18,GAAAGAGA,inactive: -0.112
19,TCAGGTCA,inactive: -0.108
20,ATGTGAGC,inactive: 0.0896
21,AAGCTTTG,inactive: -0.0314
22,AAGATAGC,inactive: -0.0217
